Data as given in PubChem BioAssay AID624417 (National Center for Advancing Translational Sciences (NCATS), 2012).
The campaign covered roughly 410,000 compounds. About 6,400 (1.6%) were called active. This list was built around the results that the source calls inconclusive (neither active nor inactive); the mix of calls is not that of the screen. Calls come from the whole dose curve; as a rule, active = well fitted inhibition curve with a large enough effect; inconclusive = small, poorly fitted or top-dose-only effect; inactive = no such curve, though single readings can be large or run the other way. No potency is given beside an inconclusive call; the fits are too rough.

molecular target: Glucagon-like peptide 1 receptor (Homo sapiens) (UniProt P43220); assay: qHTS of GLP-1 Receptor Inverse Agonists (Inhibition Mode); conditions: HEK293 GLP-1R CRE-luciferase, luminescence, 24 h, GLP-1R form is constitutively active; activity change, negative = inhibition: at 38.3 µM (top of the series) unless noted; note: nearly all actives have a fitted effect of over 55% in size
Outline: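 Readout was luciferase luminescence, measured 12 min after detection reagent at room temperature. Beforehand, GLP-1R reporter HEK293 cells had sat 12 h, then received compounds for 24 hr at 37 deg C.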
% is set by controls: 0 for no effect and ±100 for the full control effect; potency is the fitted concentration of half-maximal effect; tags give direction and shape of the fitted curve.

Chain of UniProt P43220 (P43220 whole entry, looked up): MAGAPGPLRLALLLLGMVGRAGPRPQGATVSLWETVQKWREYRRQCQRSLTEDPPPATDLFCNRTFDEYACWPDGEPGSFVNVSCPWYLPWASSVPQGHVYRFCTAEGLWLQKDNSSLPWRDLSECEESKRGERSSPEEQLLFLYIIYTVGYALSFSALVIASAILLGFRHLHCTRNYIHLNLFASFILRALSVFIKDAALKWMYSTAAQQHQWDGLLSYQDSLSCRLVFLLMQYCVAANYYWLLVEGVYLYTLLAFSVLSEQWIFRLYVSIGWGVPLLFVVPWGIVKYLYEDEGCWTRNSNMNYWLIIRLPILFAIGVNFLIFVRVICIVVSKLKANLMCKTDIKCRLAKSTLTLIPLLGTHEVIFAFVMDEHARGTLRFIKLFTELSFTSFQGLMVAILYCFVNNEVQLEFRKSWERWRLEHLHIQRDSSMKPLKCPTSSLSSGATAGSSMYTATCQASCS

Row | SMILES | Potency | activity change, negative = inhibition
1 | COc1cccc(NC(=O)Cn2cc(C(=O)C3CC3)c3ccccc32)c1 | inconclusive [inhibitor, single point] | 
2 | Cc1nn(-c2ccccc2)c2nc(C3CC3)cc(C(=O)Nc3ccccc3F)c12 | inconclusive [inhibitor, full curve] | 
3 | COc1ccccc1C1CCN(Cc2ccc(C)cc2)CC1 |  | inactive: -26.5%
4 | COc1ccccc1N(C)S(=O)(=O)c1ccc(C(=O)Nc2cc(F)ccc2C)cc1 | inconclusive [inhibitor, single point] | 
5 | COc1ccc(NC(=O)CN2CCC(C)CC2)cc1 |  | inactive: 7.64%
6 | COc1ccc(CCNc2ncnc3c2cnn3-c2ccc(C)cc2)cc1 | inconclusive [inhibitor, single point] | 
7 | CN(C)c1ccc(N=Nc2ccccc2C(=O)OCC(=O)N2CCCCCC2)cc1 | inconclusive [inhibitor, full curve, poor fit] | 
8 | Fc1ccc(CN2CCc3nc(Nc4ccccc4)ncc3C2)cc1F | inconclusive [inhibitor, partial curve, poor fit] | 
9 | CC(C)Cn1c(N)c(C(=O)COC(=O)c2cc(-c3ccco3)nc3ccccc23)c(=O)n(C)c1=O | inconclusive [inhibitor, single point] | 
10 | CN1C(=O)c2ccccc2Sc2ccc(NC(=O)COc3ccc(F)cc3)cc21 | inconclusive [inhibitor, partial curve, poor fit] | 
11 | CCN(CC)c1nc2c(c(=O)n(C)c(=O)n2C)n1CCCc1ccccc1 | inconclusive [inhibitor, partial curve, poor fit] | 
12 | O=S(=O)(c1ccccc1)N1CCN(C(=S)NCCc2ccccc2)CC1 | inconclusive [inhibitor, single point] | 
13 | COc1ccc(Cc2c(-c3ccc(C)cc3)nc3cc(C)c(Br)c(C)n23)c(C)c1 | inconclusive [inhibitor, full curve] | 
14 | CCOC(=O)[C@]12CCC=C1N(Cc1ccc3c(c1)OCO3)C(=O)[C@H](CC(=O)NCCc1ccccc1OC)C2 | inconclusive [inhibitor, single point] | 
15 | Oc1c(-c2cc(-c3ccco3)[nH]n2)ccc2ccccc12 | inconclusive [inhibitor, single point] | 
16 | Clc1ccccc1-c1nnc2sc(-c3ccc(Br)o3)nn12 |  | inactive: 0%
17 | Cc1cscc1-c1nc(NCC2CC2)nc2ccsc12 | inconclusive [inhibitor, single point] | 
18 | CC(NC(=O)CCCc1c[nH]c2ccccc12)c1ccc(F)cc1 (stereo not given) | inconclusive [inhibitor, partial curve] | 
19 | CCN(CC(=O)NCc1cccs1)C(=O)c1cc(Br)ccc1O | inconclusive [inhibitor, partial curve, poor fit] | 
20 | COc1cc(OC)cc(C(=O)O/N=C(\N)c2cccc(C)c2)c1 |  | inactive: -8.03%

Row | SMILES | Potency | activity change, negative = inhibition
21 | Cc1cc(C)n(-c2cc(N3CCN(S(=O)(=O)c4ccc(Cl)cc4)CC3)ccc2[N+](=O)[O-])n1 | inconclusive [inhibitor, single point] | 
22 | CCN(CC)C(=O)/C(=C\c1ccc2c(c1)OCO2)NC(=O)c1ccc(Br)cc1 | inconclusive [inhibitor, partial curve, poor fit] | 
23 | O=C(Cn1ccc2ccccc2c1=O)NCCC(=O)N1CCN(c2cccc(Cl)c2)CC1 | inconclusive [inhibitor, full curve, poor fit] | 
24 | Cc1ccccc1C(=O)NC1CCN(Cc2nnnn2Cc2ccc(F)cc2)CC1 | inconclusive [inhibitor, single point] | 
25 | CCCN(CCC)CCNC(=O)C1CCCN(S(=O)(=O)c2ccc3c(c2)oc(=O)n3C)C1 (stereo not given) |  | inactive: -4.2%
26 | C[C@@H](NC(=O)c1[nH]cnc1C(=O)Nc1cccc(Cl)c1)c1ccccc1 | inconclusive [inhibitor, single point] | 
27 | COc1cc(CN2CCN(CCCc3ccccc3)CC2CCO)cc(OC)c1 (stereo not given) | inconclusive [inhibitor, single point] | 
28 | CN(Cc1ccc(Cl)cc1Cl)C(=O)C1CSC2(C)CCC(=O)N12 (stereo not given) | inconclusive [inhibitor, single point] | 
29 | O=C(CN1CCN(C(=O)c2ccc(-c3nc4ccccc4s3)o2)CC1)Nc1ccc(F)cc1 | inconclusive [inhibitor, single point] | 
30 | Oc1c(C(c2ccccc2Cl)N2CCCC2)sc2nc(-c3ccco3)nn12 (stereo not given) |  | inactive: -26.6%
31 | CSc1ncccc1C(=O)Nc1cccc(S(=O)(=O)N(C)c2ccccc2)c1 | inconclusive [inhibitor, partial curve, poor fit] | 
32 | Cc1ccc(C)c(S(=O)(=O)N2CCN(C(C)C(=O)Nc3ccccc3-c3ccccc3)CC2)c1 (stereo not given) | inconclusive [inhibitor, partial curve, poor fit] | 
33 | COc1ccc(C(c2nnnn2C2CCCC2)N2CCc3ccccc3C2)cc1OC (stereo not given) | inconclusive [inhibitor, single point] | 
34 | Clc1ccccc1CN1CCN(c2ncccn2)CC1 | inconclusive [inhibitor, single point] | 
35 | COc1ccc(-n2c(CC3C(=O)N(C)c4ccc(C)cc43)nc3ccccc3c2=O)cc1 (stereo not given) |  | inactive: -29.5%
36 | O=C(c1ccccc1)N(C(=O)c1ccccc1)c1ccccc1 |  | inactive: -20.4%
37 | CN(Cc1ccccc1)C(=O)c1cccc(NC(=O)Cc2ccc(NC(=O)C3CCN(C(=O)CCc4ccccc4)CC3)cc2)c1 | inconclusive [inhibitor, single point] | 
38 | COc1ccccc1C(=O)NCC(=O)NCCC(c1ccccc1)c1ccccc1 | inconclusive [inhibitor, partial curve] | 
39 | CC(C)(C)c1cc(C2=CSC3=NCCN23)cc(C(C)(C)C)c1O | inconclusive [inhibitor, single point] | 
40 | CCCCN(CCCC)S(=O)(=O)c1ccc(N2CCCC2=O)c([N+](=O)[O-])c1 | inconclusive [inhibitor, partial curve, poor fit] | 
